PubChem BioAssay AID2060604 (Molecular Pharmacology Branch, DTP, NCI, 2025)
For part of its entries the source gives two or more results. This list holds those alone. An entry can have further records. The records of an entry are repeated measurements (runs, samples, wells, individuals or studies).

System: 379773-124-R-J2-PDC complex spheroids, viability % test/control
Experiment: Anticancer human tumor 379773-124-R-J2-PDC patient-derived endometrial carcinoma cell line growth inhibition [CLK]
Conditions: compound alone 0.1 µM; stronger effect = lower value
From the text: A high-throughput screen of multi-cell type tumor spheroids was designed to identify active combinations of […] and targeted small molecules. Complex spheroids include a stromal component modeled by human endothelial cells (HUVEC) and fibroblasts modeled by human mesenchymal stem cells (MSCs). The concentration ranges selected for each drug and investigational agent were based upon clinically achievable concentrations if the clinical Cmax of the agent was known.
Compounds. The drugs and investigational agents: cirtuvivint (SM08502; NSC835563), CC-671 (NSC850746), vemurafenib (NSC761431), tapotoclax (NSC804041), sotorasib (NSC818433), adagrasib (NSC831453), MRTX-1133 (NSC836407), BAY2416964 (NSC825713), copanlisib (NSC816437), inavolisib (NSC800729), abemaciclib (NSC768073), osimertinib (NSC779217), entinostat (NSC756642), eltanexor (KPT-8602, NSC794443), venetoclax (NSC766270), ceralasertib (NSC777638), bortezomib (NSC756655), olaparib (NSC753686), talazoparib (NSC767125), alisertib (NSC759677), peposertib (NSC802822), gemcitabine (NSC613327), 5-fluorouracil (NSC19893), SN-38 (NSC673596), oxaliplatin (NSC266046), paclitaxel (NSC125973), and doxorubicin (NSC123127), were obtained from the National Cancer Institute (NCI) Developmental Therapeutics Program Chemical Repository. […] If the clinical Cmax for an agent had not been determined, the highest concentration tested was 10 microM. […]
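Note: compound exposure lasted seven days before the viability readout; 100% = DMSO vehicle control wells.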

For `CN1CCN(c2cc(C(=O)Nc3cc4cc(-c5cnn(C)c5)ccc4cn3)ccn2)CC1`, the viability, T/C was 95.1, 90.5, 81.9, 80.3, 68.3, 87.5, 79.2, 80.8, 83, 87.7, 80.5, 90.4%.
